# Reference: the supplement of paper PMC8728848
# The other results are listed elsewhere or left out.
# Columns and labels:
# Assay in all cases: glycan array binding signal (z-score within array); higher = stronger binding
# Settings in all cases: glycan notation: IUPAC condensed, linker removed
# [1] = molecular target: Gal(b1-4)GlcNAc(b1-2)Man(a1-3)[Gal(b1-4)GlcNAc(b1-2)Man(a1-6)]Man(b1-4)GlcNAc(b1-4)GlcNAc
# In short: (§1)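 Columns mapping to the same glycan were averaged after glycan names were converted to IUPAC-condensed notation. The data come from 3228 arrays in the Consortium for Functional Glycomics database, limited to those with an available protein sequence. Binding is reported as a within-array Z-score averaged across arrays of one protein sequence and across linkers.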
# [2] = molecular target: Gal(b1-4)GlcNAc(b1-2)Man(a1-3)[Gal(b1-4)GlcNAc(b1-2)Man(a1-6)]Man(b1-4)GlcNAc(b1-4)[Fuc(a1-6)]GlcNAc
# In short: as §1
# [3] = molecular target: Gal(b1-4)GlcNAc(b1-2)Man(a1-3)[Gal(b1-4)GlcNAc(b1-2)Man(a1-6)][Gal(b1-4)GlcNAc(b1-4)]Man(b1-4)GlcNAc(b1-4)[Fuc(a1-6)]GlcNAc
# In short: as §1
# [4] = molecular target: Gal(b1-4)GlcNAc(b1-2)Man(a1-3)[Gal(b1-4)GlcNAc(b1-2)Man(a1-6)][GlcNAc(b1-4)]Man(b1-4)GlcNAc(b1-4)[Fuc(a1-6)]GlcNAc
# In short: as §1
# [5] = molecular target: Gal(b1-4)GlcNAc(b1-2)Man(a1-3)[GlcNAc(b1-2)Man(a1-6)]Man(b1-4)GlcNAc(b1-4)GlcNAc
# In short: as §1
# [6] = molecular target: Gal(b1-4)GlcNAc(b1-2)Man(a1-3)[GlcNAc(b1-4)][Gal(b1-4)GlcNAc(b1-2)Man(a1-6)]Man(b1-4)GlcNAc(b1-4)GlcNAc
# In short: as §1
# [7] = molecular target: Gal(b1-4)GlcNAc(b1-2)Man(a1-3)[Man(a1-6)]Man(b1-4)GlcNAc(b1-4)GlcNAc
# In short: as §1
# [8] = molecular target: Gal(b1-4)GlcNAc(b1-2)Man(a1-6)Man(b1-4)GlcNAc(b1-4)GlcNAc
# In short: as §1
# [9] = molecular target: Gal(b1-4)GlcNAc(b1-2)Man(a1-6)[GlcNAc(b1-2)Man(a1-3)]Man(b1-4)GlcNAc(b1-4)GlcNAc
# In short: as §1
# [10] = molecular target: Gal(b1-4)GlcNAc(b1-2)Man(a1-6)[Man(a1-3)]Man(b1-4)GlcNAc(b1-4)GlcNAc
# In short: as §1
# [11] = molecular target: Gal(b1-4)GlcNAc(b1-2)[Gal(b1-4)GlcNAc(b1-4)]Man(a1-3)[Gal(b1-4)GlcNAc(b1-2)Man(a1-6)]Man(b1-4)GlcNAc(b1-4)GlcNAc
# In short: as §1
# [12] = molecular target: Gal(b1-4)GlcNAc(b1-2)[Gal(b1-4)GlcNAc(b1-4)]Man(a1-3)[Gal(b1-4)GlcNAc(b1-2)[Gal(b1-4)GlcNAc(b1-6)]Man(a1-6)]Man(b1-4)GlcNAc(b1-4)GlcNAc
# In short: as §1
# [13] = molecular target: Gal(b1-4)GlcNAc(b1-2)[Gal(b1-4)GlcNAc(b1-4)]Man(a1-3)[GlcNAc(b1-4)][Gal(b1-4)GlcNAc(b1-2)Man(a1-6)]Man(b1-4)GlcNAc(b1-4)GlcNAc
# In short: as §1
# [14] = molecular target: Gal(b1-4)GlcNAc(b1-2)[Gal(b1-4)GlcNAc(b1-4)]Man(a1-3)[GlcNAc(b1-4)][Gal(b1-4)GlcNAc(b1-2)[Gal(b1-4)GlcNAc(b1-6)]Man(a1-6)]Man(b1-4)GlcNAc(b1-4)GlcNAc
# In short: as §1
# [15] = molecular target: Gal(b1-4)GlcNAc(b1-2)[Gal(b1-4)GlcNAc(b1-6)]Man(a1-6)[Gal(b1-4)GlcNAc(b1-2)Man(a1-3)]Man(b1-4)GlcNAc(b1-4)GlcNAc
# In short: as §1
# [16] = molecular target: Gal(b1-4)GlcNAc(b1-2)[Gal(b1-4)GlcNAc(b1-6)]Man(a1-6)[Gal(b1-4)GlcNAc(b1-2)Man(a1-3)]Man(b1-4)GlcNAc(b1-4)[Fuc(a1-6)]GlcNAc
# In short: as §1
# [17] = molecular target: Gal(b1-4)GlcNAc(b1-2)[Gal(b1-4)GlcNAc(b1-6)]Man(a1-6)[GlcNAc(b1-4)][Gal(b1-4)GlcNAc(b1-2)Man(a1-3)]Man(b1-4)GlcNAc(b1-4)GlcNAc
# In short: as §1
# [18] = molecular target: Gal(b1-4)GlcNAc(b1-2)[Gal(b1-4)GlcNAc(b1-6)]Man(a1-6)[GlcNAc(b1-4)][Gal(b1-4)GlcNAc(b1-2)[Gal(b1-4)GlcNAc(b1-4)]Man(a1-3)]Man(b1-4)GlcNAc(b1-4)[Fuc(a1-6)]GlcNAc
# In short: as §1
# [19] = molecular target: Gal(b1-4)GlcNAc(b1-3)Gal(b1-3)GalNAc
# In short: as §1
binder,measurement,setting,value
"DC-Sign (Homo sapiens), Q9NNX6 (protein) MSDSKEPRLQQLGLLEEEQLRGLGFRQTRGYKSLAGCLGHGPLVLQLLSFTLLAGLLVQVSKVPSSISQEQSRQDAIYQNLTQLKAAVGELSEKSKLQEIYQELTQLKAAVGELPEKSKLQEIYQELTRLKAAVGELPEKSKLQEIYQELTWLKAAVGELPEKSKMQEIYQELTRLKAAVGELPEKSKQQEIYQELTRLKAAVGELPEKSKQQEIYQELTRLKAAVGELPEKSKQQEIYQELTQLKAAVERLCHPCPWEWTFFQGNCYFMSNSQRNWHDSITACKEVGAQLVVIKSAEEQNFLQLQSSRSNRFTWMGLSDLNQEGTWQWVDGSPLLPSFKQYWNRGEPNNVGEEDCAEFSGNGWNDDKCNLAKFWICKKSAASCSRDEEQFLSPAPATPNPPPA",glycan array binding signal (z-score),[1],-0.096
same,glycan array binding signal (z-score),[2],-0.195
same,glycan array binding signal (z-score),[3],-0.122
same,glycan array binding signal (z-score),[4],-0.086
same,glycan array binding signal (z-score),[5],-0.13
same,glycan array binding signal (z-score),[6],-0.162
same,glycan array binding signal (z-score),[7],-0.156
same,glycan array binding signal (z-score),[8],-0.156
same,glycan array binding signal (z-score),[9],-0.159
same,glycan array binding signal (z-score),[10],-0.115
same,glycan array binding signal (z-score),[11],-0.173
same,glycan array binding signal (z-score),[12],-0.2
same,glycan array binding signal (z-score),[13],-0.201
same,glycan array binding signal (z-score),[14],-0.211
same,glycan array binding signal (z-score),[15],-0.2
same,glycan array binding signal (z-score),[16],-0.163
same,glycan array binding signal (z-score),[17],-0.187
same,glycan array binding signal (z-score),[18],-0.207
same,glycan array binding signal (z-score),[19],-0.181
